The whole screen tested about 360,000 compounds, of which about 25,000 (6.9%) were called active. Inconclusive means that the source gave no clear call. Such entries were picked first, then a sample of the others. The call rests on the fitted dose curve; in most records, active means well fitted inhibition curve with a large enough effect; inconclusive means small, poorly fitted or top-dose-only effect; inactive means flat fitted curve, though single readings scatter. Where the call is inconclusive, the potency comes from a doubtful curve fit.
These compounds were tested against Luciferin 4-monooxygenase (Photinus pyralis) (UniProt P08659) (assay: qHTS profiling assay for firefly luciferase inhibitor/activator using purifed enzyme and Km concentrations of substrates (counterscreen for miR-21 project)). Conditions: purified FLuc, luminescence inhibition; activity change, negative = inhibition: at 57.5 µM (top of the series).
Chain of UniProt P08659 (P08659 whole entry, looked up): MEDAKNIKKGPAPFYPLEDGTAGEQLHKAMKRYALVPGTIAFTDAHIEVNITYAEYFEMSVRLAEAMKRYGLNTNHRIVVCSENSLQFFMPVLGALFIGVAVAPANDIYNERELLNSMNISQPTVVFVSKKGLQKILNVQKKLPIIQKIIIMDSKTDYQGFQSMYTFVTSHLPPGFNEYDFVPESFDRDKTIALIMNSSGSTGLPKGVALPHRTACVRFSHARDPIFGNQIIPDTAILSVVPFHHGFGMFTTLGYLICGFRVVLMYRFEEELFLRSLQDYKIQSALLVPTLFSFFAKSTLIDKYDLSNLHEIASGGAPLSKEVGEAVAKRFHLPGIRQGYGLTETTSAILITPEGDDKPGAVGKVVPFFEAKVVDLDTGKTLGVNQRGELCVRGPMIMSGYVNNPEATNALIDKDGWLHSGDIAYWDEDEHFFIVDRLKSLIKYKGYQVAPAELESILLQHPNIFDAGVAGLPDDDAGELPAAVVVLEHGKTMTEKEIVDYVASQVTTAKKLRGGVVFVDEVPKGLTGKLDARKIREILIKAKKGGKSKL
Procedure, shortened: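 Purified P. pyralis luciferase, 10 nM final, with Km-level 10 uM D-luciferin and 10 uM ATP in 50 mM Tris acetate pH 7.5, 10 mM Mg acetate, 0.01% Tween-20, 0.05% BSA; 6-point qHTS titration about 60 µM downward; luminescence read.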
Further: nearly all actives have a fitted effect of over 55% in size.
Potency means the concentration at half of the fitted maximal effect; tags describe the fitted curve by direction and shape.
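Wherever activity change, negative = inhibition is given: plate controls were vehicle for no effect and reference inhibitor for full effect.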

Compound	Potency	activity change, negative = inhibition
COCCNC(=O)/C(C#N)=C/c1cccc(/C=C(\C#N)C(=O)NCCOC)c1	inconclusive: 7.57 µM [inhibitor, partial curve, poor fit]	–
Cc1nc(-c2nnc(-c3ccccc3)o2)c(C(F)(F)F)o1	inconclusive: 37.9 µM [inhibitor, partial curve, poor fit]	–
O=C(Nc1cccc(S(=O)(=O)N2CCOCC2)c1)c1ccc(N2CCCC2=O)cc1	inconclusive: 7.57 µM [inhibitor, partial curve, poor fit]	–
COC(=O)c1ccc(C2c3c(oc4cc(C)c(C)cc4c3=O)C(=O)N2c2ccccn2)cc1 (stereo not drawn)	–	inactive: 1.05%
CC(=O)CCc1c(C)c2cc(C)ccc2[nH]c1=O	inconclusive: 37.9 µM [inhibitor, single point]	–
O=C(Nc1cccc(NC(=O)c2ccc(-c3ccc(Br)cc3)o2)c1)c1ccco1	active: 2.69 µM	–
COc1cccc(C=O)c1OCCCOc1cccc2cccnc12	inconclusive: 19 µM [inhibitor, partial curve]	–
Cc1cc(-c2ccccc2)nc(N2CCC(C(=O)NC34CC5CC(CC(C5)C3)C4)CC2)n1	inconclusive: 15.1 µM [inhibitor, partial curve, poor fit]	–
COc1ccc(C2NC(=O)C(C#N)=C(S)N2c2ccc(C)cc2)cc1OC (stereo not drawn)	active: 19 µM	–
Cc1ccc(NC(=O)C2CC2c2ccccc2)cc1 (stereo not drawn)	inconclusive: 23.9 µM [inhibitor, single point]	–
COc1cccc(Nc2ncnc3c2cnn3-c2cccc(C)c2)c1	active: 16.9 µM	–
COc1cccc(C(=O)Nc2nnc(-c3cccs3)s2)c1	active: 1.9 µM	–
N/C(=N\NC(=O)c1ccccc1)c1cc2ccccc2oc1=O	–	inactive: 1.77%
O=C(Nc1noc2ccccc12)c1cccc(F)c1	active: 2.39 µM	–
Cc1cc(NC(=S)N(Cc2ccc(Br)cc2)Cc2ccc(C(=O)O)cc2)ccc1Cl	inconclusive: 37.9 µM [inhibitor, single point]	–
Cc1cc(-c2ccc(N=Nc3c(S(=O)(=O)O)cc4cc(S(=O)(=O)O)cc(N)c4c3O)c(C)c2)ccc1N=Nc1c(S(=O)(=O)O)cc2cc(S(=O)(=O)O)cc(N)c2c1O	active: 21.3 µM	–
Cc1cc(C)n(-c2nc(NCCO)c3c4c(sc3n2)CCCC4)n1	inconclusive: 13.5 µM [inhibitor, partial curve]	–
Cc1cc(/C=C(/C#N)c2cccc(Cl)c2)c(C)n1C	inconclusive: 7.57 µM [inhibitor, partial curve, poor fit]	–
CC(C)Oc1cccc(C(=O)NC(=S)Nc2ccc(Cl)c(C(=O)O)c2)c1	inconclusive: 33.8 µM [inhibitor, partial curve, poor fit]	–
C#CCn1cc(/C=N/NC(=O)COc2cccc3cccnc23)c2ccccc21	–	inactive: -18.4%
CN(C)S(=O)(=O)c1cccc(C(=O)Nc2cc3c(cc2C(=O)O)OCCCO3)c1	active: 6.01 µM	–
O=C(Nc1ccc2oc(-c3ccccc3Cl)nc2c1)c1cncc(Br)c1	inconclusive: 19 µM [inhibitor, partial curve, poor fit]	–
Cc1nc2ccc3nc(NC(=O)c4ccc5c(c4)OCCO5)sc3c2s1	inconclusive: 0.601 µM [inhibitor, partial curve, poor fit]	–
CSc1ccccc1OCc1cc(C(=O)N2C[C@H]3CC[C@H]2C3)no1	active: 10.7 µM	–
CC(C)n1c(=S)[nH]c2c1c(=O)[nH]c(=O)n2C	inconclusive: 37.9 µM [inhibitor, partial curve, poor fit]	–

Compound	Potency	activity change, negative = inhibition
O=C(Nc1nnc(-c2ccc(Br)cc2)o1)C1=COCCO1	inconclusive: 23.9 µM [inhibitor, partial curve, poor fit]	–
O=C(OCC(=O)N1CCOCC1)c1cccc(F)c1	inconclusive: 16.9 µM [inhibitor, partial curve]	–
O=C(Nc1ccc(SC(F)F)cc1)c1ccc(F)cc1	active: 8.49 µM	–
COc1ccc(C)cc1S(=O)(=O)N1CC(C)OC(C)C1 (stereo not drawn)	inconclusive: 30.1 µM [inhibitor, partial curve, poor fit]	–
Cc1ccc(C(=O)c2ccccc2C(=O)OCC(=O)NCCc2ccc(Cl)cc2Cl)cc1	–	inactive: 0.277%
Nc1ccc(Sc2cc(Cl)nc(N)n2)cc1	inconclusive: 21.3 µM [inhibitor, partial curve, poor fit]	–
O=C1/C(=C\c2ccc3ccccc3c2)CCCc2ccccc21	active: 2.13 µM	–
Cc1c(NC(=S)N/N=C/c2cc([N+](=O)[O-])ccc2O)c(=O)n(-c2ccccc2)n1C	active: 26.9 µM	–
O=C(c1ccccc1)N1CCN(c2ccc([N+](=O)[O-])c(NCc3ccco3)c2)CC1	–	inactive: 0.947%
Cc1cccc(C)c1-n1c(C)cc(/C=C2\NC(=O)NC2=O)c1C	inconclusive: 21.3 µM [inhibitor, single point]	–
O=C(Nc1ccc(CN2CCOCC2)cc1)c1cccs1	active: 12 µM	–
CC(c1ccccc1)N1CCn2c(nc3cc(NC(=O)c4cccs4)ccc32)C1 (stereo not drawn)	inconclusive: 26.9 µM [inhibitor, single point]	–
Cc1ccc(/C=C2\C(=N)N3N=C(CC(=O)N4CCCCC4)SC3=NC2=O)cc1	inconclusive: 37.9 µM [inhibitor, partial curve, poor fit]	–
CNC(=O)c1cc2n(n1)CCCN(Cc1ccc(F)cc1)C2=O	–	inactive: -0.462%
CC(C)c1ccc(C(=O)Nc2cccc3cccnc23)cc1	active: 9.53 µM	–
CCCc1cc(C(=O)N2CCN(C(c3ccccc3)c3ccccc3)CC2)no1	–	inactive: 4.67%
C/C(=N/NC(=O)c1ccco1)c1cccc(NC(=O)c2ccc(C)o2)c1	active: 15.1 µM	–
Cc1ccc2cc(NC(=O)c3cccc(F)c3)ccc2n1	active: 2.69 µM	–
Cc1ccc2c(c1)C(=O)CCN2	–	inactive: 4.14%
Cn1c(N)c(C(=O)COC(=O)CNS(=O)(=O)c2ccc(Cl)c(Cl)c2)c(=O)n(C)c1=O	inconclusive: 37.9 µM [inhibitor, partial curve, poor fit]	–
Cc1ccc2c(Cl)c(C(=O)Nc3ccc4c(c3)OCO4)sc2c1	–	inactive: -27.6%
CCc1ccccc1N1CC(c2nc3ccccc3n2Cc2cccc(C)c2)CC1=O (stereo not drawn)	–	inactive: -16.2%
O=C(Nc1nc2nc(-c3ccccc3)cc(=O)n2[nH]1)c1ccc(F)cc1	inconclusive: 12 µM [inhibitor, partial curve]	–
CC(NCC(=O)Nc1ccccc1C(=O)NC1CC1)c1ccc(F)cc1F (stereo not drawn)	–	inactive: 4%
Cc1sc2nc(CSCC(=O)Nc3ccccc3C#N)[nH]c(=O)c2c1C	–	inactive: -4.22%

Compound	Potency	activity change, negative = inhibition
Cc1cc(N/C=C/C(=O)c2ccc(Br)cc2)no1	inconclusive: 3.01 µM [inhibitor, full curve]	–
Cc1occc1C(=O)Nc1nnc(-c2cccs2)s1	inconclusive: 2.39 µM [inhibitor, full curve]	–
CCOC(=O)NC(=S)Nc1ccc(C(C)(C)C)cc1Br	inconclusive: 37.9 µM [inhibitor, single point]	–
CCOc1cc(C(=O)OCc2cc(=O)n3c(C)csc3n2)cc(OCC)c1OCC	–	inactive: -0.669%
Cc1ccc(CN(Cc2ccco2)c2cnc(S(C)(=O)=O)nc2C(=O)Nc2ccc(Br)cc2)o1	–	inactive: -0.748%
CN(C)CCNC(=O)c1cc2c(s1)-c1ccc(Cl)cc1SC2	inconclusive: 23.9 µM [inhibitor, partial curve]	–
COc1ccc(CCN(C)C(=O)c2cc(S(=O)(=O)N3CCCCC3)ccc2Cl)cc1OC	–	inactive: 2.17%
CCCCN(c1ccccc1)c1ncnc2c1cnn2-c1ccc(Cl)cc1	active: 13.5 µM	–
CC(Sc1nncs1)C(=O)Nc1ccc2c(c1)OCO2 (stereo not drawn)	inconclusive: 37.9 µM [inhibitor, partial curve, poor fit]	–
CC(C)(C)C(=O)[C@H]1[C@H](c2ccccc2)[C@@]2(N=C(c3ccccc3)OC2=O)C2c3ccccc3C=NN21 (stereo partly drawn)	active: 15.1 µM	–
CCN1C(=S)SC(=O)C1=C1C=C(C)OC(C)=C1	inconclusive: 19 µM [inhibitor, partial curve]	–
Cc1ccccc1NC(=O)Cn1c(=O)n(Cc2ccc3c(c2)OCO3)c(=O)c2oc3ccccc3c21	–	inactive: 3.38%
CCN(Cc1ccc(OC)cc1)c1ccc(-c2nc(-c3ccncc3)no2)cc1[N+](=O)[O-]	inconclusive: 19 µM [inhibitor, partial curve]	–
Cc1cc(N2CCOCC2)nc2ccc(Cl)cc12	active: 6.01 µM	–
Cc1cnc(NC(=O)c2ccc(F)c(S(=O)(=O)N3CCOCC3)c2)s1	inconclusive: 30.1 µM [inhibitor, single point]	–
Nc1cc(C(=O)c2ccccc2)ccc1N1CCOCC1	active: 16.9 µM	–
Cc1ccccc1Nc1c(-c2ccsc2)nc2c(C)cccn12	inconclusive: 26.9 µM [inhibitor, single point]	–
NC(=O)c1ccccc1NC(=O)CC12CC3CC(CC(Br)(C3)C1)C2	–	inactive: -0.414%
COc1ccccc1-c1noc(CCC(=O)Nc2ccccc2Cl)n1	inconclusive: 19 µM [inhibitor, partial curve, poor fit]	–
COC(=O)C1=C(C)N(CCc2c[nH]c3ccccc23)C(=O)/C1=C\N(C)C	–	inactive: -0.53%
Cc1ccc(C(=O)Nc2ccc(N3CCCC3)cc2)c(C)c1	inconclusive: 21.3 µM [inhibitor, partial curve]	–
CCc1ccc2[nH]c3nc(SCC(=O)NCC4CCCO4)nnc3c2c1 (stereo not drawn)	inconclusive: 12 µM [inhibitor, partial curve]	–
CC(C)(C)C(=O)/C(=C/c1ccc(Cl)cc1)n1cncn1	–	inactive: 0.458%

From PubChem BioAssay AID588342 (National Center for Advancing Translational Sciences (NCATS), 2011)
